This passage reports IC50 results from US20090018162A1, “USE OF 6-(3-CHLORO-2-FLUOROBENZYL)-1-[(2S)-1-HYDROXY-3-METHYLBUTAN-2-YL]-7-METHOXY-4-OXO-1,4-DIHYDROQUINOLINE-3-CARBOXYLIC ACID OR SALT THEREOF FOR TREATING RETROVIRUS INFECTION” (priority 2006, published 2009).

Assay [1] concerns HIV-1 macrophage-tropic virus strains. The experiment in a line: microbe, parasite or virus in culture. To be noted: Human immunodeficiency virus 1, Macrophage, read-out: average IC50, drug-sensitive (wild-type) viruses in macrophage cultures, n=3 viruses.
For another assay, the system named is HIV-1 clinical isolates. Briefly: microbe, parasite or virus in culture.
Setting [2] is: Human immunodeficiency virus 1, CCR5, in Homo sapiens, HIV-1 BR/92/025 (subtype C/C, R5) in PBMCs, modified assay with virus pre-incubation.
Where [3] appears, read: Human immunodeficiency virus 1, PBMC, in Homo sapiens, HIV-1 BFC01 (Group O, R5) in PBMCs, modified assay with virus pre-incubation.

Where a name gives a salt, the structure may show the parent alone. Read-outs that look alike come from different tables or passages of the source.

One may read the IC50 as the concentration at which inhibition is half-maximal. As to `COc1cc2c(cc1Cc1cccc(Cl)c1F)c(=O)c(C(=O)O)cn2[C@H](CO)C(C)C` [Compound I, 6-(3-chloro-2-fluorobenzyl)-1-[(2S)-1-hydroxy-3-methylbutan-2-yl]-7-methoxy-4-oxo-1,4-dihydroquinoline-3-carboxylic acid], the IC50 came out at 0.35 ± 0.3 nM in assay [1]; 0.1 nM with HIV-1 clinical isolates (setting [2]); 1.17 nM in the assay with HIV-1 clinical isolates (setting [3]); 0.62 ± 0.41 nM with HIV-1 clinical isolates (Human immunodeficiency virus 1, PBMC, in Homo sapiens, read-out: average IC50, drug-sensitive (wild-type) viruses in PBMCs, n=11 viruses).

`O=C1Nc2ccc(Cl)cc2[C@@](C#CC2CC2)(C(F)(F)F)O1` [Efavirenz, efavirenz]: the results for the IC50 in the assay on HIV-1 clinical isolates (setting [2]) and in the assay with HIV-1 clinical isolates (setting [3]) were 0.3 nM and 0.69 nM, respectively.

For the compound `Cc1c(O)cccc1C(=O)N[C@@H](CSc1ccccc1)[C@H](O)CN1C[C@H]2CCCC[C@H]2C[C@H]1C(=O)NC(C)(C)C` [Nelfinavir, nelfinavir mesylate], the results for the concentration for half-maximal inhibition (IC50) in the assay with HIV-1 clinical isolates (setting [2]) and in the assay with HIV-1 clinical isolates (setting [3]) were below 0.1 nM and 0.99 nM, respectively.
